Measurements published in PubChem BioAssay AID1508642 (National Center for Advancing Translational Sciences (NCATS), 2021).
Hit rate of the full screen: of about 43,000 compounds, about 200 (0.47%) were called active. Inconclusive results (about 12%) are left out. The call rests on the fitted dose curve; in most records, active means well fitted cell-killing curve with a large enough effect; inconclusive means small, poorly fitted or top-dose-only effect, or effect the other way; inactive means flat fitted curve, though single readings scatter. The list shows a part of the results.

Experiment: Cell viability qHTS assay in S16 Pmp22-F2sN cells; further: nearly all actives have a fitted effect of over 65% in size
Conditions: S16 Pmp22-F2sN Schwann cells viability, CellTiter-Glo, 24 h; series mostly up to 57.5 µM; activity change, negative = cytotoxicity: at the top concentration
Method in brief: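 Viability was measured by CellTiter-Glo luminescence (15 min, room temperature). This followed 24 h at 37 °C of compound exposure (23 nL pin transfer) in S16 Pmp22-F2sN Schwann cells, 500-1,000 per well.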
On the % scale 0 is the no-effect control and ±100 the full control effect.

SMILES	activity change, negative = cytotoxicity
O=C(c1cccn1-c1nnc(N2CCCC2)s1)N1CCN(c2ccccc2)CC1	inactive: 0.554%
Cc1c(C)c2c(cc(C)c3c(-c4ccccc4)coc32)oc1=O	inactive: -2.07%
O=C(NC1CC(=O)N(c2cccc(F)c2)C1)C1CCCC1 (stereo unspecified)	inactive: 0.557%
COc1cc(-c2nc(Cn3nnc(C(=O)Nc4ccccc4)c3C)c(C)o2)cc(OC)c1OC	inactive: -8.9%
Cc1ccc(CNC(=O)c2cccn2-c2nnc(N3CCCCC3)s2)cc1	inactive: -2.35%
COc1ccccc1-n1ncc2c(=O)[nH]c(SCC(=O)Nc3ccc(Cl)cc3)nc21	inactive: -1.67%
COc1ccc2oc(=O)c(-c3csc(-c4ccc(Br)cc4)n3)cc2c1	inactive: 2.94%
Cc1ccccc1-c1nc(SCC(=O)NCc2ccco2)c2c(=O)n(C)c(=O)n(C)c2n1	inactive: 0.896%
COc1cccc(-n2c(=O)c3c4c(sc3n(Cc3ccc(C)cc3)c2=O)CCCC4)c1	inactive: 8.74%
COc1ccc(-c2nc(CSCC(=O)N3CCN(c4cccc(C)c4C)CC3)c(C)o2)cc1OC	inactive: -29%
CCN(CC)CCCNC(=O)CN1C(=O)CCn2nc(-c3cn(C)c4ccccc34)cc21	inactive: 18.4%
Cc1ccc(C(=O)c2cn(CC(=O)NC3CCCCC3)c3nc(C)ccc3c2=O)cc1	inactive: 4.8%
Cc1c(C(=O)N2CCCC2)oc2c1-c1nn(CC(=O)NCCCOC(C)C)cc1CC2	inactive: 1.2%
COc1cccc(C(=O)Nc2ccccc2C(=O)OCc2cc(=O)n3nc(C4CC4)sc3n2)c1	inactive: -0.928%
Cc1nnc(NC(=O)CSCc2cc(=O)c3cc(Cl)ccc3[nH]2)s1	inactive: 7.78%
CCCCNC(=O)c1nn(-c2ccc(CC)cc2)nc1CO	inactive: -0.195%
Cc1cccc(NC(=O)C2CCN(S(=O)(=O)c3ccc(F)cc3)CC2)c1C	inactive: -1.12%
COc1cccc(CN(C(=O)c2oc3cc(C)ccc3c2C)C2CCS(=O)(=O)C2)c1 (stereo unspecified)	inactive: 1.43%
CCCn1c(=O)sc2cc(NC(=O)COc3ccc(Cl)cc3)ccc21	inactive: -5.62%
CC1CCC(NC(=O)c2ccc3c(c2)N(Cc2cccc(Cl)c2)C(=O)c2ccccc2S3(=O)=O)CC1 (stereo unspecified)	inactive: -9.71%
CCc1ccccc1NC(=O)Cn1nnc(C(=O)NCc2ccccc2Cl)c1N	inactive: 0.483%
COc1cccc2c1cc1c(=O)n(CC(=O)N3CCN(c4cccc(C)c4)C(C)C3)nc(C)n12 (stereo unspecified)	inactive: -0.869%
Cc1cc(C)cc(NC(=O)CSc2cc(C)[nH]c(=O)n2)c1	inactive: -5.04%
CCCC1=Nc2cc(C(=O)NC3CCCC3)ccc2Sc2ccc(C)cc21	inactive: 1.84%

SMILES	activity change, negative = cytotoxicity
CCOC(=O)CC(NC(=O)Cn1nnc(-c2ccc(C(F)(F)F)cc2)n1)c1ccc(OC)cc1 (stereo unspecified)	inactive: 6.39%
CCOc1ccc(NC(=O)C2CC(=O)N(c3ccc(C(C)C)cc3)C2)cc1 (stereo unspecified)	inactive: 21%
COc1ccc(C)cc1NC(=O)c1ccc2c(SCC(=O)O)c3c(nc2c1)CCCC3	inactive: 4.82%
Cn1c(=O)n(-c2ccc3c(c2)OCO3)c2nc(-c3ccccc3)nc(C(N)=O)c21	inactive: 5.74%
COc1ccc(NC(=O)c2sc3nc[nH]c(=O)c3c2C)cc1Cl	inactive: -1.25%
COc1cc(CN(C(=O)COc2ccc(C)cc2)c2ccccn2)cc(OC)c1OC	inactive: -5.92%
CC(=O)Nc1ccc(-c2cc(C(=O)O)c3c(-c4ccccc4)[nH]nc3n2)cc1	inactive: -12.6%
CCc1cccc(C)c1NC(=O)Cn1c(=O)cc(C)c2c(C)nn(-c3cccc(F)c3)c21	inactive: -2.48%
Cc1cccc(CCNC(=O)CCc2c(C)nc3c4c(C)cc(C)nc4nn3c2C)c1	inactive: -1.62%
COc1ccc(CNC(=O)Cn2ncc3c([nH]c4ccccc43)c2=O)cc1	inactive: 1.82%
COc1ccccc1N1CCN(c2cc(C)nc3nc(-c4ccc(C)cc4)nn23)CC1	inactive: 13%
O=C(NCc1ccc(F)cc1)c1ccc(Nc2nc3ccccc3n3nnnc23)cc1	inactive: 1.74%
CCS(=O)(=O)c1nc(S(=O)(=O)c2ccc(C)cc2)c(NCCCOC)s1	inactive: 2.53%
CCCC12CN3CC(CCC)(CN(C1)C3c1ccccc1)C2=O (stereo unspecified)	inactive: 1.31%
CCOC(=O)c1ccc(NC(=O)NCCOCCn2c(=O)oc3ccccc32)cc1	inactive: -6.09%
COc1ccccc1NC(=O)C1CCN(C(=O)c2sc3nc[nH]c(=O)c3c2C)CC1	inactive: 11.3%
CC(=O)c1ccc(NC(=O)c2ccc(-c3ccc(Cl)cc3)o2)cc1	inactive: 20.8%
CCN(CC)CCNC(=O)c1ccc2nc(CCc3ccccc3)oc2c1	inactive: -23.6%
Cc1cc2oc3c(c(=O)c2cc1C)C1(C(=O)N(C)c2ccccc21)N(CCO)C3=O (stereo unspecified)	inactive: 10.3%
CCn1c(CNC(=O)c2ccc(OC)cc2)nnc1SCC(=O)Nc1ccc(C)cc1	inactive: 0.229%
Nc1cc(=O)nc(SCC(=O)Nc2ccc(F)cc2)n1CCc1ccccc1	inactive: 14.7%
COc1ccc(N2CC(NC(=O)c3ccco3)CC2=O)cc1 (stereo unspecified)	inactive: 0.411%
COc1ccc(CNC(=O)CSc2nc(-c3ccc(OC)c(OC)c3)cc(C(F)(F)F)n2)cc1	inactive: 3%
CC(CNC(=O)c1ccc(CSc2nc3ccncc3n2Cc2ccccc2)cc1)c1ccccc1 (stereo unspecified)	inactive: -17.9%

SMILES	activity change, negative = cytotoxicity
Cc1ccc(CCNC(=O)CS(=O)Cc2nc(-c3ccccc3C)oc2C)cc1 (stereo unspecified)	inactive: 3.6%
CCN(Cc1ccccc1)C(=O)Cn1c(=O)n(-c2ccc(Cl)cc2)c(=O)c2c(C)c(C(=O)N(C)C)sc21	inactive: 19.9%
CCCCN(C)S(=O)(=O)c1ccc(C(=O)Nc2sc3c(c2C(N)=O)CC(C)(C)NC3(C)C)cc1	inactive: 0.456%
CCCc1ccc(-c2ccc(C(=O)Oc3ccc(OCC)cc3)cc2)nc1	inactive: 16.3%
O=C(Cn1ncc2c3ccccc3n(Cc3cccc(Cl)c3)c2c1=O)NCc1cccs1	inactive: -2.57%
CCc1ccc(OCc2nc(-c3ccc(OC)cc3)no2)c(Br)c1	inactive: 9.71%
O=C(Cn1cnc2c(oc3ccccc32)c1=O)Nc1ccc(F)cc1F	inactive: 7.33%
O=C(CSc1nc2c(oc3ccccc32)c(=O)n1Cc1ccco1)Nc1ccccc1Cl	inactive: 2.11%
O=C(Nc1ccc2nc(SCC(=O)N3CCCC3)sc2c1)c1cccc(Br)c1	inactive: 2.31%
Cc1ccc(C)c(CNC(=O)CCn2cccn2)c1	inactive: 5.8%
Cc1cc(C)cc(N2C(=O)CSC23C(=O)N(CC(=O)Nc2ccc(F)cc2F)c2ccccc23)c1 (stereo unspecified)	inactive: 5.57%
Cc1cccc(NC(=O)C2CCN(c3nc4ccccc4[nH]3)CC2)c1C	inactive: 17.8%
CCOCCCN1C(=O)c2[nH]nc(-c3ccccc3O)c2C1c1ccc(CC)cc1 (stereo unspecified)	inactive: 8.13%
CCCCc1nn2c(=O)cc(COC(=O)c3ccc(NC(=O)CCc4ccccc4)cc3)nc2s1	inactive: -1.68%
CCOC(=O)c1oc2c(c1C)-c1nn(Cc3c(F)cccc3Cl)cc1CC2	inactive: 0.0263%
CCc1cccc(NC(=O)Cn2c(=O)n(CC(=O)NCCc3ccccc3)c(=O)c3ccccc32)c1	inactive: -5.01%
O=C1CC(c2ccccc2)c2c(n3ncnc3[nH]c2=O)N1 (stereo unspecified)	inactive: -1.43%
CC(C)CCn1c(=O)c2sccc2n2c(CCCC(=O)NCCc3ccccc3)nnc12	inactive: 13.3%
Cc1nc2ccc(S(=O)(=O)N(CC(=O)Nc3cccc(F)c3)Cc3ccccc3)cc2s1	inactive: 18.2%
CC(C)N(C)C1CCN(S(=O)(=O)c2ccc3[nH]c(=O)ccc3c2)CC1	inactive: 4%
COc1cccc(CNC(=O)c2oc3c(c2C)-c2nn(Cc4cccc(Cl)c4)cc2CC3)c1OC	inactive: -3.79%
COc1ccccc1C(=O)N1CCC(c2noc(-c3ccc(S(=O)(=O)N4CCCC4)cc3)n2)CC1	inactive: -23.5%
O=C(NCCc1ccc(Cl)cc1)c1ccc(CS(=O)Cc2ccccc2Cl)o1 (stereo unspecified)	inactive: -10.3%
COc1cccc(CSc2nc3n(n2)C(CC(C)C)C(C(=O)Nc2ccccc2OC)=C(C)N3)c1 (stereo unspecified)	inactive: -7.88%

SMILES	activity change, negative = cytotoxicity
CCCCN(CC)CCCNC(=O)Cn1ncc2c3ccccc3n(C)c2c1=O	inactive: -3.25%
CCOc1ccc(OCC)c(NC(=O)Cn2nc(CC)n3c(cc4sccc43)c2=O)c1	inactive: -1.92%
Cc1cc(=O)n2nc(N(C)CC(=O)NCc3cccc(Br)c3)sc2n1	inactive: 21.8%
Cc1ccc(NC(=O)CCN2CCN(CCO)CC2)cc1C	inactive: 0.738%
CCOc1ccc(-c2nn(CC(=O)NC3CCCC3)c3c2cnc2ccc(C)cc23)cc1	inactive: 6.16%
COc1ccc(CCNC(=O)c2ccc3c(c2)N(Cc2ccc(Cl)cc2)C(=O)c2ccccc2S3)cc1OC	inactive: -3.81%
Cc1ccc(S(=O)(=O)CC(=O)Nc2sc3c(c2C(N)=O)CCCC3)cc1	inactive: -2.71%
CC(C)CCNC(=O)Nc1ccc2c(c1)N(Cc1ccccc1)C(=O)c1ccccc1S2	inactive: -24.4%
CCc1ccc(NC(=O)Cc2c(C(=O)O)c(C)cn2C)cc1	inactive: 6.46%
Cc1ccccc1Nc1c(-c2ccc(Br)o2)nc2ccc(Cl)cn12	inactive: -0.439%
CCN(CC)c1cc2c(cc1F)c(=O)c(S(=O)(=O)c1ccc(OC)cc1)cn2Cc1ccccc1	inactive: -3.68%
CCOC(=O)Cc1ccc(NC(=O)N2CCC(CN3CCCCCC3)CC2)cc1	inactive: 13.1%
CC(=O)c1ccc(NC(=O)Cn2c(-n3nc(C)cc3C)nc(C)c(C)c2=O)cc1	inactive: 13.4%
CCc1ccc(Oc2c(C(F)(F)F)oc3c(CN4CCC(C)CC4)c(O)ccc3c2=O)cc1	inactive: 6.23%
CCCCN(CC)C(=O)c1cc2c(=O)n3cccc(C)c3nc2n1C	inactive: 16.2%
Cc1c(CCNC(=O)c2ccco2)sc2nc(-c3ccc(F)cc3)nn12	inactive: 9.2%
Cc1ccc(NC(=O)CN2CCSc3ccc(S(=O)(=O)N4CCCC4)cc32)cc1	inactive: -9.27%
CCN(Cc1nc(-c2ccc(OC)cc2)oc1C)S(=O)(=O)c1ccc(C)cc1	inactive: -17.2%
O=C(Nc1ccc(Br)cc1)c1cccc(C(=O)Nc2ccc(Br)cc2)c1	inactive: 4.93%
O=S(=O)(c1ccc(Cl)cc1)c1nc(-c2ccccc2)oc1N1CCN(c2ccccc2)CC1	inactive: 0.244%
CCOC(=O)c1cc(NC(=O)c2ccc(Cl)cc2)c(=O)n2c1oc1ccccc12	inactive: 17.7%
O=C(CN1C=NS(=O)(=O)c2ccc(C(F)(F)F)cc21)Nc1cccc(C(F)(F)F)c1	inactive: 17.7%
Cc1ccc(CNC(=O)Cn2c(=O)n(Cc3ccccc3)c(=O)c3sc4ccccc4c32)cc1	inactive: 4.49%
COc1ccccc1N1CCN(C(=O)CN2C(=O)COc3ccc(S(=O)(=O)N4CCCC4)cc32)CC1	inactive: 22.8%
